Results: the supplement of paper PMC4604168 (melanoma cell lines)
The other results are listed elsewhere or left out. Most values come without repeats; read them as rough.
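Further: cell number obtained by counting DAPI-stained nuclei in high-throughput microscope images with image analysis software, screen run in 1,536-well plates.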

The compounds below were run on COLO829 (assay: cell count relative to DMSO control; melanoma cells; higher = more viable cells). Conditions: library dose: low library concentration; 72 h.
`CS(=O)(=O)CCNCc1ccc(-c2ccc3ncnc(Nc4ccc(OCc5cccc(F)c5)c(Cl)c4)c3c2)o1` [lapatinib] + Nc1nc(F)nc2c1ncn2[C@@H]1O[C@H](CO)[C@@H](O)[C@@H]1O [fludarabine] (first compound 0.8 µM, partner dose 0.2 µM) gave a cell count of 97.1%.
With `C[C@@H](Oc1cc(-c2cnn(C3CCNCC3)c2)cnc1N)c1c(Cl)ccc(F)c1Cl` [Crizotinib] + Nc1cccc2c1CN(C1CCC(=O)NC1=O)C2=O [lenalidomide] (first compound 0.2 µM, partner dose 1 µM) the cell count was 75.2%.
`C[C@@H](Oc1cc(-c2cnn(C3CCNCC3)c2)cnc1N)c1c(Cl)ccc(F)c1Cl` [Crizotinib] + COc1ccc(Cl)c(Nc2nc3ccccc3nc2NS(=O)(=O)c2cccc(NC(=O)C(C)(C)N)c2)c1 [XL147] (first compound 0.2 µM, partner dose 0.8 µM) gave a cell count of 100%.
In the case of `CS(=O)(=O)CCNCc1ccc(-c2ccc3ncnc(Nc4ccc(OCc5cccc(F)c5)c(Cl)c4)c3c2)o1` [lapatinib] + CCCS(=O)(=O)Nc1ccc(F)c(C(=O)c2c[nH]c3ncc(Cl)cc23)c1F [PLX4720] (first compound 0.8 µM, partner dose 0.08 µM), the cell count is reported as 123%.

Each compound was assayed on G361 in the same assay as above. Conditions: library dose: low library concentration; 72 h.
`C[C@@H](Oc1cc(-c2cnn(C3CCNCC3)c2)cnc1N)c1c(Cl)ccc(F)c1Cl` [Crizotinib] + CO[C@H]1C[C@@H]2CC[C@@H](C)[C@@](O)(O2)C(=O)C(=O)N2CCCC[C@H]2C(=O)O[C@H]([C@H](C)C[C@@H]2CC[C@@H](OCCO)[C@H](OC)C2)CC(=O)[C@H](C)/C=C(\C)[C@@H](O)[C@@H](OC)C(=O)[C@H](C)C[C@H](C)/C=C/C=C/C=C/1C [everolimus] (first compound 0.2 µM, partner dose 0.02 µM) showed a cell count of 58.9%.
Work on `CN1CCN(c2ccc3nc(-c4c(N)c5c(F)cccc5[nH]c4=O)[nH]c3c2)CC1` [Dovitinib] + CC(=O)c1c(C)c2cnc(Nc3ccc(N4CCNCC4)cn3)nc2n(C2CCCC2)c1=O [palbociclib] (first compound 0.1 µM, partner dose 0.04 µM) yielded a cell count of 92.2%.
For `CS(=O)(=O)CCNCc1ccc(-c2ccc3ncnc(Nc4ccc(OCc5cccc(F)c5)c(Cl)c4)c3c2)o1` [lapatinib] + C#Cc1cccc(Nc2ncnc3cc(OCCOC)c(OCCOC)cc23)c1 [erlotinib] (first compound 0.8 µM, partner dose 0.8 µM), the cell count was 115%.
In the case of `C[C@@H](Oc1cc(-c2cnn(C3CCNCC3)c2)cnc1N)c1c(Cl)ccc(F)c1Cl` [Crizotinib] + CN1CCN(c2ccc3nc(-c4c(N)c5c(F)cccc5[nH]c4=O)[nH]c3c2)CC1 [Dovitinib] (first compound 0.2 µM, partner dose 0.1 µM), the cell count is reported as 107%.
`CS(=O)(=O)CCNCc1ccc(-c2ccc3ncnc(Nc4ccc(OCc5cccc(F)c5)c(Cl)c4)c3c2)o1` [lapatinib] + OCc1c[nH]c2ccccc12 [Indole-3-carbinol] (first compound 0.8 µM, partner dose 0.8 µM) was tested, and the cell count was 99.8%.
`CNC(=O)c1cc(Oc2ccc(NC(=O)Nc3ccc(Cl)c(C(F)(F)F)c3)cc2)ccn1` [sorafenib] + C#Cc1cccc(Nc2ncnc3cc(OCCOC)c(OCCOC)cc23)c1 [erlotinib] (first compound 0.4 µM, partner dose 0.8 µM) was tested, and the cell count was 88.9%.
With `C=CCNC1=C2C[C@@H](C)C[C@H](OC)[C@H](O)[C@@H](C)/C=C(\C)[C@H](OC(N)=O)[C@@H](OC)/C=C\C=C(/C)C(=O)NC(=CC1=O)C2=O` [Tanespimycin] + Cn1c(Nc2ccc(C(F)(F)F)cc2)nc2cc(Oc3ccnc(-c4ncc(C(F)(F)F)[nH]4)c3)ccc21 [CHIR265] (first compound 0.002 µM, partner dose 0.08 µM) the cell count was 84.9%.
`CN1CCN(c2ccc3nc(-c4c(N)c5c(F)cccc5[nH]c4=O)[nH]c3c2)CC1` [Dovitinib] + OCc1c[nH]c2ccccc12 [Indole-3-carbinol] (first compound 0.1 µM, partner dose 0.8 µM) was tested, and the cell count was 124%.
For `CNC(=O)c1cc(Oc2ccc(NC(=O)Nc3ccc(Cl)c(C(F)(F)F)c3)cc2)ccn1` [sorafenib] + CS(=O)(=O)CCNCc1ccc(-c2ccc3ncnc(Nc4ccc(OCc5cccc(F)c5)c(Cl)c4)c3c2)o1 [lapatinib] (first compound 0.4 µM, partner dose 0.8 µM), the cell count was 103%.
Work on `CN1CCN(c2ccc3nc(-c4c(N)c5c(F)cccc5[nH]c4=O)[nH]c3c2)CC1` [Dovitinib] + CS(=O)(=O)CCNCc1ccc(-c2ccc3ncnc(Nc4ccc(OCc5cccc(F)c5)c(Cl)c4)c3c2)o1 [lapatinib] (first compound 0.1 µM, partner dose 0.8 µM) yielded a cell count of 97.9%.
`CNC(=O)c1cc(Oc2ccc(NC(=O)Nc3ccc(Cl)c(C(F)(F)F)c3)cc2)ccn1` [sorafenib] + Nc1nc(F)nc2c1ncn2[C@@H]1O[C@H](CO)[C@@H](O)[C@@H]1O [fludarabine] (first compound 0.4 µM, partner dose 0.2 µM) was tested, and the cell count was 104%.
In the case of `CNC(=O)c1cc(Oc2ccc(NC(=O)Nc3ccc(Cl)c(C(F)(F)F)c3)cc2)ccn1` [sorafenib] + COc1ccc(Cl)c(Nc2nc3ccccc3nc2NS(=O)(=O)c2cccc(NC(=O)C(C)(C)N)c2)c1 [XL147] (first compound 0.4 µM, partner dose 0.8 µM), the cell count is reported as 91.6%.
`CS(=O)(=O)CCNCc1ccc(-c2ccc3ncnc(Nc4ccc(OCc5cccc(F)c5)c(Cl)c4)c3c2)o1` [lapatinib] + C=C(c1ccc(C(=O)O)cc1)c1cc2c(cc1C)C(C)(C)CCC2(C)C [Bexarotene] (first compound 0.8 µM, partner dose 2 µM) showed a cell count of 73.5%.
Work on `C[C@@H](Oc1cc(-c2cnn(C3CCNCC3)c2)cnc1N)c1c(Cl)ccc(F)c1Cl` [Crizotinib] + C#Cc1cccc(Nc2ncnc3cc(OCCOC)c(OCCOC)cc23)c1 [erlotinib] (first compound 0.2 µM, partner dose 0.8 µM) yielded a cell count of 104%.
In the case of `CNC(=O)c1cc(Oc2ccc(NC(=O)Nc3ccc(Cl)c(C(F)(F)F)c3)cc2)ccn1` [sorafenib] + Cn1c(Nc2ccc(C(F)(F)F)cc2)nc2cc(Oc3ccnc(-c4ncc(C(F)(F)F)[nH]4)c3)ccc21 [CHIR265] (first compound 0.4 µM, partner dose 0.08 µM), the cell count is reported as 91.1%.
With `C=CCNC1=C2C[C@@H](C)C[C@H](OC)[C@H](O)[C@@H](C)/C=C(\C)[C@H](OC(N)=O)[C@@H](OC)/C=C\C=C(/C)C(=O)NC(=CC1=O)C2=O` [Tanespimycin] + CC(=O)c1c(C)c2cnc(Nc3ccc(N4CCNCC4)cn3)nc2n(C2CCCC2)c1=O [palbociclib] (first compound 0.002 µM, partner dose 0.04 µM) the cell count was 81.5%.
Work on `CN1CCN(c2ccc3nc(-c4c(N)c5c(F)cccc5[nH]c4=O)[nH]c3c2)CC1` [Dovitinib] + Cc1nc(Nc2ncc(C(=O)Nc3c(C)cccc3Cl)s2)cc(N2CCN(CCO)CC2)n1 [dasatanib] (first compound 0.1 µM, partner dose 0.004 µM) yielded a cell count of 67.9%.
`CN1CCN(c2ccc3nc(-c4c(N)c5c(F)cccc5[nH]c4=O)[nH]c3c2)CC1` [Dovitinib] + C=C(c1ccc(C(=O)O)cc1)c1cc2c(cc1C)C(C)(C)CCC2(C)C [Bexarotene] (first compound 0.1 µM, partner dose 2 µM) showed a cell count of 74.9%.
With `CNC(=O)c1cc(Oc2ccc(NC(=O)Nc3ccc(Cl)c(C(F)(F)F)c3)cc2)ccn1` [sorafenib] + CC(=O)c1c(C)c2cnc(Nc3ccc(N4CCNCC4)cn3)nc2n(C2CCCC2)c1=O [palbociclib] (first compound 0.4 µM, partner dose 0.04 µM) the cell count was 83.8%.
For `C=CCNC1=C2C[C@@H](C)C[C@H](OC)[C@H](O)[C@@H](C)/C=C(\C)[C@H](OC(N)=O)[C@@H](OC)/C=C\C=C(/C)C(=O)NC(=CC1=O)C2=O` [Tanespimycin] + OCc1c[nH]c2ccccc12 [Indole-3-carbinol] (first compound 0.002 µM, partner dose 0.8 µM), the cell count was 91.2%.
Work on `CS(=O)(=O)CCNCc1ccc(-c2ccc3ncnc(Nc4ccc(OCc5cccc(F)c5)c(Cl)c4)c3c2)o1` [lapatinib] + Cn1c(Nc2ccc(C(F)(F)F)cc2)nc2cc(Oc3ccnc(-c4ncc(C(F)(F)F)[nH]4)c3)ccc21 [CHIR265] (first compound 0.8 µM, partner dose 0.08 µM) yielded a cell count of 69.1%.
With `CN1CCN(c2ccc3nc(-c4c(N)c5c(F)cccc5[nH]c4=O)[nH]c3c2)CC1` [Dovitinib] + C=CCNC1=C2C[C@@H](C)C[C@H](OC)[C@H](O)[C@@H](C)/C=C(\C)[C@H](OC(N)=O)[C@@H](OC)/C=C\C=C(/C)C(=O)NC(=CC1=O)C2=O [Tanespimycin] (first compound 0.1 µM, partner dose 0.002 µM) the cell count was 92.3%.
Compound `CN1CCN(c2ccc3nc(-c4c(N)c5c(F)cccc5[nH]c4=O)[nH]c3c2)CC1` [Dovitinib] + Nc1cccc2c1CN(C1CCC(=O)NC1=O)C2=O [lenalidomide] (first compound 0.1 µM, partner dose 1 µM) has a cell count of 97%.
